Measured values as given in EP4755449A2.

How the values were obtained:
Experiment in all cases: SPR 25C
[1] = biological target: cyno Fc gamma RIIa2 extracellular domain, His-tagged (cynomolgus monkey)
[2] = biological target: cyno Fc gamma RIIa3 extracellular domain, His-tagged (cynomolgus monkey)
[3] = biological target: cyno Fc gamma RIIa1 extracellular domain, His-tagged (cynomolgus monkey)
[4] = biological target: cyno Fc gamma RIIIaS extracellular domain, His-tagged (cynomolgus monkey) (UniProt Q8SPW2)
UniProt Q8SPW2, sequence (Q8SPW2 other isoform, or with tags, fused parts or gaps): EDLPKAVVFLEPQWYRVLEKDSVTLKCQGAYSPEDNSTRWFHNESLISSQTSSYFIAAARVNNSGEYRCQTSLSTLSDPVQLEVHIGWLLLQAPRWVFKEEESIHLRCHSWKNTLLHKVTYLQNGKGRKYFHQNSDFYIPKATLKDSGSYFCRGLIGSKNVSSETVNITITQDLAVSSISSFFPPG

[5] = biological target: cyno Fc gamma RIIb extracellular domain, His-tagged (cynomolgus monkey)
cyno Fc gamma RIIb extracellular domain, His-tagged (cynomolgus monkey), sequence (chain, as listed by the source): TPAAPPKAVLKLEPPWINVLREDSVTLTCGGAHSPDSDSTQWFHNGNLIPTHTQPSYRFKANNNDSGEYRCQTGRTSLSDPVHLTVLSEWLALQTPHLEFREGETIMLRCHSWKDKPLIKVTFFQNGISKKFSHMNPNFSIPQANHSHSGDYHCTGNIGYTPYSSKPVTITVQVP

relative binding [1] [SG1=100]	relative binding [2] [SG1=100]	relative binding [3] [SG1=100]	relative binding [4] [SG1=100]	relative binding [5] [SG1=100]	Binder
16	32	17	22	22	M103205H795-SG169/M103202L889-SK1 (antibody, human IgG1, kappa) heavy: QVTLKESGPVLVKPTETLTLTCTVSGIDLSHDDISWVRQAPGKGLEWVGIISYAGSTYYASWAKGRLTISKDTSKNQVVLTMTNMDPVDTATYYCARGVPAYSHGGDLWGQGTLVTVSSASTKGPSVFPLAPSSKSTSGGTAALGCLVKDYFPEPVTVSWNSGALTSGVHTFPAVLQSSGLYSLSSVVTVPSSSLGTQTYICNVNHKPSNTKVDKKV[letters of human IgG1 Fc with P238M (EU numbers) not shown] light: DIVMTQSPATLSLSPGERATLSCTSSQSVYHANWLSWFQQKPGQPPKLLIYWASTLAYGVPSRFSGSGSGTDFTLTISSLQPEDAATYYCAGGYGGGRYAFGQGTKVEIKRTVAAPSVFIFPPSDEQLKSGTASVVCLLNNFYPREAKVQWKVDNALQSGNSQESVTEQDSKDSTYSLSSTLTLSKADYEKHKVYACEVTHQGLSSPVTKSFNRGEC
15	21	16	12	18	M103205H795-SG170/M103202L889-SK1 (antibody, human IgG1, kappa) heavy: QVTLKESGPVLVKPTETLTLTCTVSGIDLSHDDISWVRQAPGKGLEWVGIISYAGSTYYASWAKGRLTISKDTSKNQVVLTMTNMDPVDTATYYCARGVPAYSHGGDLWGQGTLVTVSSASTKGPSVFPLAPSSKSTSGGTAALGCLVKDYFPEPVTVSWNSGALTSGVHTFPAVLQSSGLYSLSSVVTVPSSSLGTQTYICNVNHKPSNTKVDKKV[letters of human IgG1 Fc with P238Q (EU numbers) not shown] light: DIVMTQSPATLSLSPGERATLSCTSSQSVYHANWLSWFQQKPGQPPKLLIYWASTLAYGVPSRFSGSGSGTDFTLTISSLQPEDAATYYCAGGYGGGRYAFGQGTKVEIKRTVAAPSVFIFPPSDEQLKSGTASVVCLLNNFYPREAKVQWKVDNALQSGNSQESVTEQDSKDSTYSLSSTLTLSKADYEKHKVYACEVTHQGLSSPVTKSFNRGEC
20	18	17	8	20	M103205H795-SG171/M103202L889-SK1 (antibody, human IgG1, kappa) heavy: QVTLKESGPVLVKPTETLTLTCTVSGIDLSHDDISWVRQAPGKGLEWVGIISYAGSTYYASWAKGRLTISKDTSKNQVVLTMTNMDPVDTATYYCARGVPAYSHGGDLWGQGTLVTVSSASTKGPSVFPLAPSSKSTSGGTAALGCLVKDYFPEPVTVSWNSGALTSGVHTFPAVLQSSGLYSLSSVVTVPSSSLGTQTYICNVNHKPSNTKVDKKV[letters of human IgG1 Fc with S239P (EU numbers) not shown] light: DIVMTQSPATLSLSPGERATLSCTSSQSVYHANWLSWFQQKPGQPPKLLIYWASTLAYGVPSRFSGSGSGTDFTLTISSLQPEDAATYYCAGGYGGGRYAFGQGTKVEIKRTVAAPSVFIFPPSDEQLKSGTASVVCLLNNFYPREAKVQWKVDNALQSGNSQESVTEQDSKDSTYSLSSTLTLSKADYEKHKVYACEVTHQGLSSPVTKSFNRGEC

Continued, binder first:

Binder	relative binding [1] [SG1=100]	relative binding [2] [SG1=100]	relative binding [3] [SG1=100]	relative binding [4] [SG1=100]	relative binding [5] [SG1=100]
M103205H795-SG166/M103202L889-SK1 (antibody, human IgG1, kappa) heavy: QVTLKESGPVLVKPTETLTLTCTVSGIDLSHDDISWVRQAPGKGLEWVGIISYAGSTYYASWAKGRLTISKDTSKNQVVLTMTNMDPVDTATYYCARGVPAYSHGGDLWGQGTLVTVSSASTKGPSVFPLAPSSKSTSGGTAALGCLVKDYFPEPVTVSWNSGALTSGVHTFPAVLQSSGLYSLSSVVTVPSSSLGTQTYICNVNHKPSNTKVDKKV[letters of human IgG1 Fc with G237D (EU numbers) not shown] light: DIVMTQSPATLSLSPGERATLSCTSSQSVYHANWLSWFQQKPGQPPKLLIYWASTLAYGVPSRFSGSGSGTDFTLTISSLQPEDAATYYCAGGYGGGRYAFGQGTKVEIKRTVAAPSVFIFPPSDEQLKSGTASVVCLLNNFYPREAKVQWKVDNALQSGNSQESVTEQDSKDSTYSLSSTLTLSKADYEKHKVYACEVTHQGLSSPVTKSFNRGEC	10	17	10	5	8
M103205H795-SG167/M103202L889-SK1 (antibody, human IgG1, kappa) heavy: QVTLKESGPVLVKPTETLTLTCTVSGIDLSHDDISWVRQAPGKGLEWVGIISYAGSTYYASWAKGRLTISKDTSKNQVVLTMTNMDPVDTATYYCARGVPAYSHGGDLWGQGTLVTVSSASTKGPSVFPLAPSSKSTSGGTAALGCLVKDYFPEPVTVSWNSGALTSGVHTFPAVLQSSGLYSLSSVVTVPSSSLGTQTYICNVNHKPSNTKVDKKV[letters of human IgG1 Fc with P238Y (EU numbers) not shown] light: DIVMTQSPATLSLSPGERATLSCTSSQSVYHANWLSWFQQKPGQPPKLLIYWASTLAYGVPSRFSGSGSGTDFTLTISSLQPEDAATYYCAGGYGGGRYAFGQGTKVEIKRTVAAPSVFIFPPSDEQLKSGTASVVCLLNNFYPREAKVQWKVDNALQSGNSQESVTEQDSKDSTYSLSSTLTLSKADYEKHKVYACEVTHQGLSSPVTKSFNRGEC	14	38	18	14	22
M103205H795-SG173/M103202L889-SK1 (antibody, human IgG1, kappa) heavy: QVTLKESGPVLVKPTETLTLTCTVSGIDLSHDDISWVRQAPGKGLEWVGIISYAGSTYYASWAKGRLTISKDTSKNQVVLTMTNMDPVDTATYYCARGVPAYSHGGDLWGQGTLVTVSSASTKGPSVFPLAPSSKSTSGGTAALGCLVKDYFPEPVTVSWNSGALTSGVHTFPAVLQSSGLYSLSSVVTVPSSSLGTQTYICNVNHKPSNTKVDKKV[letters of human IgG1 Fc with S267L (EU numbers) not shown] light: DIVMTQSPATLSLSPGERATLSCTSSQSVYHANWLSWFQQKPGQPPKLLIYWASTLAYGVPSRFSGSGSGTDFTLTISSLQPEDAATYYCAGGYGGGRYAFGQGTKVEIKRTVAAPSVFIFPPSDEQLKSGTASVVCLLNNFYPREAKVQWKVDNALQSGNSQESVTEQDSKDSTYSLSSTLTLSKADYEKHKVYACEVTHQGLSSPVTKSFNRGEC	14	21	13	24	12
M103205H795-SG174/M103202L889-SK1 (antibody, human IgG1, kappa) heavy: QVTLKESGPVLVKPTETLTLTCTVSGIDLSHDDISWVRQAPGKGLEWVGIISYAGSTYYASWAKGRLTISKDTSKNQVVLTMTNMDPVDTATYYCARGVPAYSHGGDLWGQGTLVTVSSASTKGPSVFPLAPSSKSTSGGTAALGCLVKDYFPEPVTVSWNSGALTSGVHTFPAVLQSSGLYSLSSVVTVPSSSLGTQTYICNVNHKPSNTKVDKKV[letters of human IgG1 Fc with S267H (EU numbers) not shown] light: DIVMTQSPATLSLSPGERATLSCTSSQSVYHANWLSWFQQKPGQPPKLLIYWASTLAYGVPSRFSGSGSGTDFTLTISSLQPEDAATYYCAGGYGGGRYAFGQGTKVEIKRTVAAPSVFIFPPSDEQLKSGTASVVCLLNNFYPREAKVQWKVDNALQSGNSQESVTEQDSKDSTYSLSSTLTLSKADYEKHKVYACEVTHQGLSSPVTKSFNRGEC	16	20	13	15	11
M103205H795-SG175/M103202L889-SK1 (antibody, human IgG1, kappa) heavy: QVTLKESGPVLVKPTETLTLTCTVSGIDLSHDDISWVRQAPGKGLEWVGIISYAGSTYYASWAKGRLTISKDTSKNQVVLTMTNMDPVDTATYYCARGVPAYSHGGDLWGQGTLVTVSSASTKGPSVFPLAPSSKSTSGGTAALGCLVKDYFPEPVTVSWNSGALTSGVHTFPAVLQSSGLYSLSSVVTVPSSSLGTQTYICNVNHKPSNTKVDKKV[letters of human IgG1 Fc with N325F (EU numbers) not shown] light: DIVMTQSPATLSLSPGERATLSCTSSQSVYHANWLSWFQQKPGQPPKLLIYWASTLAYGVPSRFSGSGSGTDFTLTISSLQPEDAATYYCAGGYGGGRYAFGQGTKVEIKRTVAAPSVFIFPPSDEQLKSGTASVVCLLNNFYPREAKVQWKVDNALQSGNSQESVTEQDSKDSTYSLSSTLTLSKADYEKHKVYACEVTHQGLSSPVTKSFNRGEC	13	17	13	8	14
M103205H795-SG172/M103202L889-SK1 (antibody, human IgG1, kappa) heavy: QVTLKESGPVLVKPTETLTLTCTVSGIDLSHDDISWVRQAPGKGLEWVGIISYAGSTYYASWAKGRLTISKDTSKNQVVLTMTNMDPVDTATYYCARGVPAYSHGGDLWGQGTLVTVSSASTKGPSVFPLAPSSKSTSGGTAALGCLVKDYFPEPVTVSWNSGALTSGVHTFPAVLQSSGLYSLSSVVTVPSSSLGTQTYICNVNHKPSNTKVDKKV[letters of human IgG1 Fc with V266F (EU numbers) not shown] light: DIVMTQSPATLSLSPGERATLSCTSSQSVYHANWLSWFQQKPGQPPKLLIYWASTLAYGVPSRFSGSGSGTDFTLTISSLQPEDAATYYCAGGYGGGRYAFGQGTKVEIKRTVAAPSVFIFPPSDEQLKSGTASVVCLLNNFYPREAKVQWKVDNALQSGNSQESVTEQDSKDSTYSLSSTLTLSKADYEKHKVYACEVTHQGLSSPVTKSFNRGEC	17	27	14	31	16
M103205H795-SG168/M103202L889-SK1 (antibody, human IgG1, kappa) heavy: QVTLKESGPVLVKPTETLTLTCTVSGIDLSHDDISWVRQAPGKGLEWVGIISYAGSTYYASWAKGRLTISKDTSKNQVVLTMTNMDPVDTATYYCARGVPAYSHGGDLWGQGTLVTVSSASTKGPSVFPLAPSSKSTSGGTAALGCLVKDYFPEPVTVSWNSGALTSGVHTFPAVLQSSGLYSLSSVVTVPSSSLGTQTYICNVNHKPSNTKVDKKV[letters of human IgG1 Fc with P238E (EU numbers) not shown] light: DIVMTQSPATLSLSPGERATLSCTSSQSVYHANWLSWFQQKPGQPPKLLIYWASTLAYGVPSRFSGSGSGTDFTLTISSLQPEDAATYYCAGGYGGGRYAFGQGTKVEIKRTVAAPSVFIFPPSDEQLKSGTASVVCLLNNFYPREAKVQWKVDNALQSGNSQESVTEQDSKDSTYSLSSTLTLSKADYEKHKVYACEVTHQGLSSPVTKSFNRGEC	16	30	21	13	28
